These results are taken from PubChem BioAssay AID1159614 (National Center for Advancing Translational Sciences (NCATS), 2016).

The whole screen tested about 45,000 compounds, of which about 65 (0.1%) were called active. The call rests on the fitted dose curve; in most records, active means well fitted activation curve with a large enough effect; inconclusive means small, poorly fitted or top-dose-only effect; inactive means no such curve, though single readings can be large or run the other way. This is one part of the list.

UniProt P54803, sequence (P54803 whole entry, looked up): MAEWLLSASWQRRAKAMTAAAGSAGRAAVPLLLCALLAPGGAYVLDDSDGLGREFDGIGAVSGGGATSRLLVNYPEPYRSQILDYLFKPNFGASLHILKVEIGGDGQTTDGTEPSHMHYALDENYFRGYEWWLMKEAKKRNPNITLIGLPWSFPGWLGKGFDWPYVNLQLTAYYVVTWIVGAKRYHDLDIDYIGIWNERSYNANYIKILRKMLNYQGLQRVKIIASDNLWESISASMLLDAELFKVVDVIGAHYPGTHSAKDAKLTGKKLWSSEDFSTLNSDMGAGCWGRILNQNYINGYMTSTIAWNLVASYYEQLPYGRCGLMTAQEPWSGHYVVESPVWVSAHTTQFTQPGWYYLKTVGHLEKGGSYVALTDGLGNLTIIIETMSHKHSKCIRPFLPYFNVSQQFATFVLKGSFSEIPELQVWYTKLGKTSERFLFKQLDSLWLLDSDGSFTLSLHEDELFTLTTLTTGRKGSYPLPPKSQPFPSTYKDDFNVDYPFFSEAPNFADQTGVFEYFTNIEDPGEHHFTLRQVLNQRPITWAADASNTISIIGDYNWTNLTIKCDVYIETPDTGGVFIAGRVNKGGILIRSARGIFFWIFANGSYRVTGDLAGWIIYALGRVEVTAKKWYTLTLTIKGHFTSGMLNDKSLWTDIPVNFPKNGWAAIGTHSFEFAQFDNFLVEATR

For the test, the target named is Galactocerebrosidase (Homo sapiens) (UniProt P54803). Kind of test: A Novel Cell-Based Assay to Identify Small Molecules for B -Galactocerebrosidase. Further: 0% is about no effect; nearly all actives have a fitted effect of over 65% in size. Particulars: 145M-Twi-hGALC-G270D cells (Twitcher mouse brain line with human GALC G270D), HMU-beta-Gal fluorescence, 48 h; series mostly up to 57.5 µM; activation: at the top concentration. In a few lines:
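Fluorogenic HMU-b-Gal hydrolysis (0.1 mM final, pH 5.2 citrate-phosphate with 1 mg/mL sodium taurocholate; carbonate stop buffer) measures mutant GALC activity after compound treatment of live 145M-Twi Twitcher brain cells stably carrying human GALC-G270D, with wild-type GALC line alongside; activation sought.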
Take `O=C(NCCc1ccc(Cl)cc1)c1ccc2c(c1)N(Cc1ccccc1)C(=O)CS2`: the “activation” value is inactive: -3.39%. As for `Cc1ccc(NC(=O)c2sc3nc[nH]c(=O)c3c2C)cc1C`, the “activation” value is inactive: -24.3%. Regarding `Cc1ccc(NC(=O)CN2C(=O)c3ccccc3Sc3ncccc32)c(C)c1`, the “activation” value is inactive: -17.4%. With `O=c1c2ccccc2nc(-c2ccc(Cl)cc2)n1CCCCOc1ccc(F)cc1` the figure was inactive: -9.31%; with `CCOc1ccccc1NC(=O)N1CCC(N2CCN(Cc3ccccc3)C(=O)C2=O)CC1`, inactive: -25.9%; with `CCc1cc2c(-c3ccccc3)cc(=O)oc2c2c1OCN(Cc1ccc(C)cc1)C2`, inactive: -18.7%.

As for `CCOC(=O)c1c(NC(=O)c2cc(-c3ccc(Br)cc3)on2)sc(C)c1C`, the “activation” value is inactive: -23%. With `CC(Oc1ccccc1F)C(=O)N1CCC(c2nc3ccccc3o2)CC1` (stereo not drawn) the figure was inactive: -11.7%. With `CCOc1ccc(CN2C(=O)c3ccccc3Sc3ccc(C(=O)NC4CCC(C)CC4)cc32)cc1` (stereo not drawn) the figure was inactive: 5.91%; with `CCOC(=O)c1ccccc1NC(=O)CCc1c(C)nc2c(c1C)c(=O)n(C)c(=O)n2C`, inactive: -19.2%; with `Cc1ccc(N(CC(=O)NCc2ccc(OC(C)C)cc2)S(=O)(=O)N(C)C)cc1`, inactive: -12%. As to `COC(=O)c1ccc(NC(=O)CCOc2ccccc2)cc1`, the “activation” value was inactive: -7.05%. For `Cc1ccc(Cn2c(Cc3ccccc3)nc3ccccc32)cc1` the value was inactive: -4.34%; for `Cn1cc(C(=O)N2CCN(c3ccccc3)CC2)c(=O)c2cc(S(=O)(=O)N3CCCC3)ccc21`, inactive: 17.8%. For `O=C(NC1CC(=O)N(c2ccc(F)cc2)C1)C(c1ccccc1)c1ccccc1` (stereo not drawn) the value was inactive: -8.51%; for `COc1ccc(-c2noc(CSc3nnc(-c4ccncc4)n3-c3ccc(OC)cc3)n2)cc1`, inactive: 5.33%; for `Cc1cccc(NC(=O)Cn2c(=O)oc3cc(S(=O)(=O)N4CCCCCC4)ccc32)c1`, inactive: -28.3%. For `COc1ccc(CNC(=O)CCS(=O)(=O)c2cc3c4c(c2)CCN4C(=O)CC3)cc1` the value was inactive: -11.8%; for `COC(=O)c1ccc(NC(=O)c2cc3cc4ccc(OC)c(Cl)c4nc3s2)cc1`, inactive: -5.88%; for `COc1ccc(S(=O)(=O)N(CCc2ccccc2)CC(=O)NCc2ccc(C)cc2)cc1`, inactive: -12.4%. Turning to `CCCC(=O)Nc1nnc(S(=O)(=O)N(C)c2ccccc2)s1`, the “activation” value was inactive: -13.6%. For the molecule `O=C(Nc1c(O)c2ccccc2oc1=O)c1ccccc1Cl`, the “activation” value was inactive: -13.2%. For `COCCNC(=O)c1ccc(NC(=O)N2CCCCc3ccccc32)cc1` the value was inactive: -10.2%; for `CCOc1ccc(CNC(=O)CN2C(=O)CSc3c2c(C)nn3-c2ccccc2)cc1`, inactive: -21.5%; for `Cc1ccc(CSc2nc3cccnc3n2Cc2nc(-c3ccccc3F)oc2C)cc1`, inactive: -8.47%. With `COc1ccc(NC(=O)C(=O)NCCc2csc3nc(-c4ccccc4C)nn23)cc1` the figure was inactive: 6.92%; with `CCOc1ccc(-n2nc3ccc(NC(=O)COc4ccccc4C)cc3n2)cc1`, inactive: 9.29%. Turning to `O=C(C1CC1)N1CCc2cc(Br)cc(S(=O)(=O)Nc3ccc(C(F)(F)F)cc3)c21`, the “activation” value is inactive: 10.2%.

Turning to `COc1cccc(CNC(=O)C2CCCN(c3nnc(-n4c(C)ccc4C)s3)C2)c1` (stereo not drawn), the “activation” value is inactive: -8.81%. For `O=C(NCC(c1cccnc1)N1CCN(Cc2ccccc2)CC1)C(=O)Nc1ccc(F)cc1` (stereo not drawn) the value was inactive: -14.2%; for `CCCN(CCC)C(=O)C(CCC(=O)O)NC(=O)c1ccccc1` (stereo not drawn), inactive: -12.4%.

For `COc1ccccc1CCNC(=O)C1CCN(c2nc3ccccc3nc2C(F)(F)F)CC1`, the “activation” value is inactive: -13.4%. With `COC(=O)c1ccccc1NC(=O)CSc1c2c(nc3ccc(Cl)cc13)CCCC2`, the “activation” value was inactive: 2.71%. With `CCn1cnc2cc(NCc3ccc(N(C)C)cc3)ccc21`, the “activation” value was inactive: -34.9%. As to `CC(C)c1ccc(NC(=O)CN(C)S(=O)(=O)c2ccc3c(c2)n(C)c(=O)c(=O)n3C)cc1`, the “activation” value is inactive: -5.37%.

As to `CCOC(=O)N1CCN(CCC(=O)Nc2cc(C)ccc2C)CC1`, the “activation” value was inactive: -20.2%. On to `CCn1cc2nc(SCC(=O)Nc3cccc(Cl)c3C)n(Cc3ccc(Cl)cc3)c(=O)c2n1`, for which the “activation” value was inactive: -8.91%. On to `CCOc1ccc(C(=O)Nc2ccc3nc(SCC(=O)N4CCCC4)sc3c2)cc1`, for which the “activation” value is inactive: -11%. As for `CCc1ccc(CNC(=O)c2cnc3sc(N4CCCCCC4)nn3c2=O)cc1`, the “activation” value was inactive: -0.908%. With `CCC1CCCCN1C(=O)CSc1nc(-c2ccc(OC)cc2)cc(C(F)(F)F)n1` (stereo not drawn) the figure was inactive: -6.72%; with `CCCCCCCCCCCCOS(=O)(=O)O`, inactive: -17.7%; with `COC(=O)c1cc(NC(=O)CCc2c(C)nc3nc(C)nn3c2C)cc(C(=O)OC)c1`, inactive: -23.4%. For `CCN1C(=O)c2ccccc2S(=O)c2ccc(C(=O)N3CCN(c4cccc(Cl)c4)CC3)cc21` (stereo not drawn) the value was inactive: -12.8%; for `O=C(Cc1ccc(F)cc1)NCCc1csc2nc(-c3ccc(Cl)cc3)nn12`, inactive: -2.57%; for `CCOc1ccc(NC(=O)Cn2cc(C(=O)c3ccccc3)c(=O)c3cc(OC)ccc32)cc1`, inactive: -16.9%. For `Cc1ccc2c(c1)-c1onc(C(=O)N(C)c3ccc(F)cc3)c1CO2` the value was inactive: -3.95%.

Take `CCOC(=O)Cn1c(=O)cc(C)c2c(C)nn(-c3cccc(F)c3)c21`: the “activation” value is inactive: -26.4%. For `Cc1cccc(CC(=O)Nc2cccc(-c3cn4cccnc4n3)c2)c1` the value was inactive: -7.31%. For `CC1=C(C(=O)Nc2ccccc2C)C(c2ccc[nH]2)n2ncnc2N1` (stereo not drawn), the “activation” value was inactive: -17.3%. Turning to `Cc1ccc(-n2ncc3c(=O)n(Cc4cccc(C(F)(F)F)c4)cnc32)cc1C`, the “activation” value is inactive: -13.3%. Consider `CCCCn1c(SCc2ccccc2C#N)nc2c(sc3ccccc32)c1=O`, for which the “activation” value was inactive: -14.3%. On to `Cc1cccc(NC(=O)c2cc3c(C)nn(-c4ccccc4)c3s2)c1`, for which the “activation” value was inactive: -5.99%. Take `O=C(CCc1nnc2n(Cc3ccccc3Cl)c(=O)c3ccccc3n12)Nc1ccccc1`: the “activation” value was inactive: -13.6%. With `CCCCN(c1ccccc1)S(=O)(=O)c1cc2c3c(c1)C(C)C(=O)N3CCC2` (stereo not drawn) the figure was inactive: -8.39%. For `COc1ccc(NC(=O)c2ccc(-c3nc(CSc4ccccc4)c(C)o3)cc2)c(OC)c1` the value was inactive: -0.345%; for `O=C(NCc1ccc2c(c1)CCN2C(=O)c1ccncc1)c1cccc(F)c1`, inactive: -6.75%. Consider `CCOC(=O)c1[nH]c(C)c(C(=O)NCc2ccccc2Cl)c1C`, for which the “activation” value was inactive: -8.17%. `Fc1ccc(-n2ncc3c(NCCCc4ccccc4)ncnc32)cc1`: the “activation” value was inactive: -5.54%.

On to `Cc1ccc(COC(=O)c2ccc(-c3nnn(Cc4ccc(C)cc4)n3)cc2)cc1`, for which the “activation” value was inactive: -18.1%.

As for `O=c1cc(-c2ccccc2)nc(SCc2nc(-c3cccc(C(F)(F)F)c3)no2)[nH]1`, the “activation” value was inactive: -18%.

For `CCN(CCCNC(=O)CN1N=C(c2ccc(C)cc2)CCC1=O)c1ccccc1`, the “activation” value was inactive: -17.4%.

Regarding `Cc1ccn2c(=O)c(NC(=O)c3cccc([N+](=O)[O-])c3C)c(C)nc2c1`, the “activation” value is inactive: -16.3%.

For `CCOc1ccc(C2c3[nH]c4ccccc4c3CCN2C(=O)CCC2CCCC2)cc1` (stereo not drawn), the “activation” value was inactive: -14.3%.
